Test results: PMC3709894
Results are given in words; binding and its absence hold for the method and conditions named. In cells and extracts the contact can be indirect. Some binding calls cover weakened binding; strength is not graded here. For some of these results: Where a sequence is shown, tags or fusion partners need not be part of it.

Columns and labels:
[1] = target: T1, Flag-Rad21 Del(383–392 aa), full length devoid of 383–392 aa (human) (UniProt O60216); assay: co-IP; 293 T cells transfected with pFlag CMV2 Rad21 constructs; IP of Flag-Rad21 (Flag mAb agarose beads) from whole cell lysate, blots of endogenous cohesin subunits and associated proteins
T1 sequence: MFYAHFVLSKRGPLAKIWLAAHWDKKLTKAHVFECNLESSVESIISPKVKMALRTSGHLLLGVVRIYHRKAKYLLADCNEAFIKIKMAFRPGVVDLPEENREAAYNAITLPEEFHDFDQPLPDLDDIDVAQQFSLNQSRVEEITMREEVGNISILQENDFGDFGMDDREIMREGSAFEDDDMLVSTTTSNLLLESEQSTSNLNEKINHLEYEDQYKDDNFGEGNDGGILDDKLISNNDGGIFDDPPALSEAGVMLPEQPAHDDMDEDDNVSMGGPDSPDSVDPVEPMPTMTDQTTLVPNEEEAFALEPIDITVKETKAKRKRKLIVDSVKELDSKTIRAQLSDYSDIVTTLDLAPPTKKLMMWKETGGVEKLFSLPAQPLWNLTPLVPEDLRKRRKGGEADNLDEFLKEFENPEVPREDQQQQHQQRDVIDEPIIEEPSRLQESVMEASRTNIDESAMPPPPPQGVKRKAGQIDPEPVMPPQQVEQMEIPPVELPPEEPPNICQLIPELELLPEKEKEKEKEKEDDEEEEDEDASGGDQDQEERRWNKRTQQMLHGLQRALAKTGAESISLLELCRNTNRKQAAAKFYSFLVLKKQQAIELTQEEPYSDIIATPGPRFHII

[2] = target: T2, Flag-Rad21 WT (full length) in pFlag CMV2 (human) (UniProt O60216); assay: as above
T2 sequence: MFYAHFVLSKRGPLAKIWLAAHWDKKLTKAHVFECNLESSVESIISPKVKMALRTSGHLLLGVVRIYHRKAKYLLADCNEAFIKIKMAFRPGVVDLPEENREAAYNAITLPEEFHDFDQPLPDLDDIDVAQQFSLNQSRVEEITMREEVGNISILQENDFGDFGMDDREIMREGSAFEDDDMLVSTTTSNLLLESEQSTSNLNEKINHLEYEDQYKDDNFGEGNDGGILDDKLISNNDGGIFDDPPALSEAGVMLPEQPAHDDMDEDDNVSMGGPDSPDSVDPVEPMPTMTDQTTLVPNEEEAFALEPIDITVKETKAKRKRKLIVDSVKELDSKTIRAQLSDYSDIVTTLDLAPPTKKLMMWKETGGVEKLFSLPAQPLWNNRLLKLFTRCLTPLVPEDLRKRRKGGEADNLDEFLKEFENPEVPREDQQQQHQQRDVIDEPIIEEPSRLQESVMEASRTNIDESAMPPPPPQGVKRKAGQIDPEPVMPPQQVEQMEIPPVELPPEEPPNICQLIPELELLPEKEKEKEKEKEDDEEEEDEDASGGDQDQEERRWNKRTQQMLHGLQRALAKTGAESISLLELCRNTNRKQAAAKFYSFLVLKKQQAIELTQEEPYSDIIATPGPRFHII

[3] = target: T3, Flag-Rad21 quadruple mutant (QM) R69A K70A K72A Y73A, full length (human) (UniProt O60216); assay: as above
T3 sequence: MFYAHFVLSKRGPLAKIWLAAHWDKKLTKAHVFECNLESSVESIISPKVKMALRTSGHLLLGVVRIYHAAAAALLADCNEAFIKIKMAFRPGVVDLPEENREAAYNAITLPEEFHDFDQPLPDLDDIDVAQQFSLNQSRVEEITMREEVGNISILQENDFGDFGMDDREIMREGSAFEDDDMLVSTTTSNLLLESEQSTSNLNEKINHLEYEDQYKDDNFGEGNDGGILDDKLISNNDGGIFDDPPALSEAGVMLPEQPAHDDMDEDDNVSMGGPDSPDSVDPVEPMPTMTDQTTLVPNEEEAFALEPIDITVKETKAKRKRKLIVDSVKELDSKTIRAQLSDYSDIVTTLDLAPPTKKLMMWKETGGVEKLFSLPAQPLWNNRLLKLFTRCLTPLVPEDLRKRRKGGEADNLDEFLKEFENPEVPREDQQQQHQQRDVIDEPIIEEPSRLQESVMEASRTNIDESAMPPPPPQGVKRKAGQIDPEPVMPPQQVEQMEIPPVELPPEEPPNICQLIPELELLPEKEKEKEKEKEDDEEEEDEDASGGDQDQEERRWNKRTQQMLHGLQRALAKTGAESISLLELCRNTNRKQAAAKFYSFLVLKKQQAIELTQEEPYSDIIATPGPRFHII

[4] = target: T4, C-terminal fragment (451–631 aa) of Rad21 (Rad21 CT), expressed in 293 T cells (human) (UniProt O60216); assay: co-IP; 293 T cells transfected with differently tagged (Flag, HA) Rad21 NT, MP or CT fragments; IP from cell lysates 40 h after transfection; blots of the other copy and of endogenous proteins
T4 sequence: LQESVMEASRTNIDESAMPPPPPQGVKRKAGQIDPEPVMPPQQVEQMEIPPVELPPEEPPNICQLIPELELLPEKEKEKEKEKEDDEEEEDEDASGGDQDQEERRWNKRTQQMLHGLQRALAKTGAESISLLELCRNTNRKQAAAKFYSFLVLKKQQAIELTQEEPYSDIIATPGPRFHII

binding [1]: binds | binding [2]: binds | binding [3]: binds | binding [4]: binds
B1: endogenous Smc1 (protein, UniProt Q14683 1-1233)
chain: MGFLKLIEIENFKSYKGRQIIGPFQRFTAIIGPNGSGKSNLMDAISFVLGEKTSNLRVKTLRDLIHGAPVGKPAANRAFVSMVYSEEGAEDRTFARVIVGGSSEYKINNKVVQLHEYSEELEKLGILIKARNFLVFQGAVESIAMKNPKERTALFEEISRSGELAQEYDKRKKEMVKAEEDTQFNYHRKKNIAAERKEAKQEKEEADRYQRLKDEVVRAQVQLQLFKLYHNEVEIEKLNKELASKNKEIEKDKKRMDKVEDELKEKKKELGKMMREQQQIEKEIKEKDSELNQKRPQYIKAKENTSHKIKKLEAAKKSLQNAQKHYKKRKGDMDELEKEMLSVEKARQEFEERMEEESQSQGRDLTLEENQVKKYHRLKEEASKRAATLAQELEKFNRDQKADQDRLDLEERKKVETEAKIKQKLREIEENQKRIEKLEEYITTSKQSLEEQKKLEGELTEEVEMAKRRIDEINKELNQVMEQLGDARIDRQESSRQQRKAEIMESIKRLYPGSVYGRLIDLCQPTQKKYQIAVTKVLGKNMDAIIVDSEKTGRDCIQYIKEQRGEPETFLPLDYLEVKPTDEKLRELKGAKLVIDVIRYEPPHIKKALQYACGNALVCDNVEDARRIAFGGHQRHKTVALDGTLFQKSGVISGGASDLKAKARRWDEKAVDKLKEKKERLTEELKEQMKAKRKEAELRQVQSQAHGLQMRLKYSQSDLEQTKTRHLALNLQEKSKLESELANFGPRINDIKRIIQSREREMKDLKEKMNQVEDEVFEEFCREIGVRNIREFEEEKVKRQNEIAKKRLEFENQKTRLGIQLDFEKNQLKEDQDKVHMWEQTVKKDENEIEKLKKEEQRHMKIIDETMAQLQDLKNQHLAKKSEVNDKNHEMEEIRKKLGGANKEMTHLQKEVTAIETKLEQKRSDRHNLLQACKMQDIKLPLSKGTMDDISQEEGSSQGEDSVSGSQRISSIYAREALIEIDYGDLCEDLKDAQAEEEIKQEMNTLQQKLNEQQSVLQRIAAPNMKAMEKLESVRDKFQETSDEFEAARKRAKKAKQAFEQIKKERFDRFNACFESVATNIDEIYKALSRNSSAQAFLGPENPEEPYLDGINYNCVAPGKRFRPMDNLSGGEKTVAALALLFAIHSYKPAPFFVLDEIDAALDNTNIGKVANYIKEQSTCNFQAIVISLKEEFYTKAESLIGVYPEQGDCVISKVLTFDLTKYPDANPNPNEQ
